Out of some 110,000 compounds screened, about 230 (0.21%) showed an effect of 50% or more. The list shows a part of the results.
What follows are compounds tested against DPAP1 (Plasmodium falciparum, UniProt Q8IIJ9) (assay: primary screen, percent inhibition; read by cleavage of a fluorogenic dipeptide substrate; higher = more effect of the substance).
Parameters: species or system P. falciparum D10 trophozoite lysates; single well
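Note: 30 min substrate incubation versus DMSO and 10 µM JCP410 controls.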

DPAP1, sequence (Q8IIJ9 whole entry, looked up): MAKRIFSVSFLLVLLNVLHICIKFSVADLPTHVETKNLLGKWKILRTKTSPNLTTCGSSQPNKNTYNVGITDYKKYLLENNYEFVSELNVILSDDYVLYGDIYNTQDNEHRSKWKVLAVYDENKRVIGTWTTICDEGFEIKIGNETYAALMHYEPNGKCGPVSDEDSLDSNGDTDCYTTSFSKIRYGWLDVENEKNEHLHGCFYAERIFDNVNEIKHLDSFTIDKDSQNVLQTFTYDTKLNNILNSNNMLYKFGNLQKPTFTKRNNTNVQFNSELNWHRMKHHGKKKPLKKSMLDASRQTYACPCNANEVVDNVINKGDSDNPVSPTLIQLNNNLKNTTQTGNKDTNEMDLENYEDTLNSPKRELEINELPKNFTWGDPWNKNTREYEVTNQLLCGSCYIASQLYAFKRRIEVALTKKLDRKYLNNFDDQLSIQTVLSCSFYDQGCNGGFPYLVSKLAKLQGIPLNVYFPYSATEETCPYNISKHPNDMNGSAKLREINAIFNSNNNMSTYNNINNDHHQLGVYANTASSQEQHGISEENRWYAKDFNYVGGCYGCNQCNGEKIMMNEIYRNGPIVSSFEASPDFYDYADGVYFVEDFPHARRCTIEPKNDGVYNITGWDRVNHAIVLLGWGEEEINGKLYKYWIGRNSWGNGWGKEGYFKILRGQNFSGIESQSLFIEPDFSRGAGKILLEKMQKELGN

Row | SMILES | % Inhibition @ 10 uM
1 | CCC(=O)N1N=C2C3CCN(CC3)C2C1c1cc(C)cc(C)c1 (stereo not drawn) | 1.64%
2 | Cc1ccc(S(=O)(=O)N2CCC[C@H]2C(O)(c2ccccc2)c2ccccc2)cc1 | 2.02%
3 | Cc1ccccc1N1CCN(c2ccc(NC(=O)C3CC=CCC3C(=O)O)cc2)CC1 (stereo not drawn) | -1.61%
4 | CNS(=O)(=O)c1cn(CC(=O)Nc2ncccc2C)cc1S(=O)(=O)NC | -0.696%
5 | CC1(C)CC(=O)C2=C(C1)N(c1ccc(Cl)cc1)C(N)=C(C#N)C21C(=O)Nc2ccccc21 (stereo not drawn) | 0.687%
6 | COc1ccc(C(=O)Nc2cccc(Cl)c2)c(OC)c1 | 2.43%
7 | COc1cc(NC(=O)c2cc3nc(-c4ccco4)cc(C(F)(F)Cl)n3n2)cc(OC)c1OC | -7.63%
8 | Nc1ccc(S(=O)(=O)Nc2nc3ccccc3nc2Nc2ccc3ccccc3c2)cc1 | -0.0372%
9 | CN(CCCNC(=O)Cn1ncc2c3ccccc3n(Cc3ccccc3)c2c1=O)C1CCCCC1 | -1.58%
10 | COc1ccc(OC)c(NC(=O)c2ccc(Cl)c(Cl)c2)c1 | -2.65%
11 | Cc1ccc(C(=O)NCC(=O)NCC(=O)O)cc1 | -1.1%
12 | O=C(Nc1ccccc1)NC1CCCCC1 | 2.01%
13 | Cc1ccc(CN(Cc2ccccc2)C(=S)NCC(=O)NC2CCCCC2)o1 | -0.406%
14 | CCOc1ccc(/C=C2\SC(Nc3ccc(F)cc3)=NC2=O)cc1OC | -2.86%
15 | N#CC1(NC(=O)[C@H](Cc2c(F)cccc2F)NC(=O)c2ccc(-c3ccccc3Cl)[n+]([O-])c2)CCS(=O)(=O)CC1 | -5.2%
16 | CC1(C)COC2(NC1=O)c1ccccc1-c1ccccc12 | 6.68%
17 | COc1ccc(Cl)cc1NC(=O)CN(Cc1ccccc1)S(C)(=O)=O | 9.41%
18 | O=C(Nc1cccc([N+](=O)[O-])c1)c1cccc(S(=O)(=O)NCc2ccccc2)c1 | -1.74%
19 | CN(C)CCN(C(=O)Cc1ccccc1)c1nc2cc3c(cc2s1)OCCO3 | -1.41%
20 | C=CCNc1nc(-c2ccc(C)cc2C)cs1 | -6.83%
21 | O=C(CCCc1nnc2n3nc(-c4ccccc4)nc3c3ccccc3n12)NCCCN1CCCC1=O | 0.44%
22 | CC(C)C1C(C#N)=C(N)Oc2c1c(=O)oc1ccccc21 (stereo not drawn) | -4.03%
23 | Cc1nn(C(C)C(=O)NCc2ccccn2)c(=O)c2nn(-c3ccccc3)c(C)c12 (stereo not drawn) | -6.93%
24 | COCCCNC(=O)c1sc2nc3n(c(=O)c2c1C)CCCCC3 | -2.88%

Row | SMILES | % Inhibition @ 10 uM
25 | CCOc1ccccc1NC(=O)C1=C(C)NC(=O)NC1c1ccc(N(C)C)cc1 (stereo not drawn) | 0.812%
26 | Cc1ccc(-c2cc(C(F)(F)F)n3ncc(C(=O)NCc4c(C)nn(C)c4C)c3n2)cc1 | 2.32%
27 | Clc1ccc(OCc2ccccc2)c(CNCC2CCCO2)c1 (stereo not drawn) | -1.61%
28 | CN(Cc1ccco1)S(=O)(=O)c1nnc(NC(=O)c2ccc(F)cc2)s1 | 1.68%
29 | O=C(COc1ccc2ccccc2c1Br)NCC1CCCO1 (stereo not drawn) | 2.32%
30 | COc1ccc(-c2cc(C(F)(F)F)n3nc(C(=O)NCc4c(C)nn(C)c4C)c(Cl)c3n2)cc1 | 0.64%
31 | COc1ccc(Nc2nc(C)cc(O)n2)cc1 | 0.215%
32 | COc1cc(CN2CCN(c3cccc(C(F)(F)F)c3)CC2)cc(OC)c1O | -3.71%
33 | Cc1nc(SCc2cc(=O)n3nc(C(C)C)sc3n2)n[nH]1 | 3.29%
34 | CC1Oc2ccc(C(=O)CCC(=O)O)cc2NC1=O (stereo not drawn) | -1.29%
35 | CCOc1ccc(NS(=O)(=O)c2ccc(NC(=O)c3ccccc3Cl)cc2)cc1 | -2.83%
36 | CC1(C)CC2=Nc3ncnn3C(c3ccccc3)C2=C(O)C1 (stereo not drawn) | -3.63%
37 | CCCN(CCO)Cc1cccc(Cl)c1Cl | -8.55%
38 | OC1(C(O)(c2ccccc2)c2ccccn2)CCCCC1 (stereo not drawn) | 0.177%
39 | CCCn1c(=O)c2sccc2n2c(CCCC(=O)N[C@@H](C)CC)nnc12 | 0.868%
40 | Cn1c(=O)c2sccc2n2c(CCCC(=O)NCCN(Cc3ccco3)C3CCCC3)nnc12 | -1.59%
41 | O=C(c1cccc2ccccc12)N1CCN(Cc2c[nH]c3ccccc23)CC1 | 0.147%
42 | N=C(NOC(=O)Cc1ccccc1)c1ccccn1 | -1.25%
43 | O=C(O)c1[nH]c2ccccc2c1CNCc1ccccc1 | -5.05%
44 | COc1ccc(CN2C(=O)c3cccnc3C2=O)cc1S(=O)(=O)N1CCC(c2ccccc2)C1 (stereo not drawn) | -8.24%
45 | CC1CCC2=NN(C(=O)c3cccnc3)C(O)(C(F)(F)F)C2C1 (stereo not drawn) | -2.22%
46 | CC(C)CN(CCNCc1c(C(=O)O)n(Cc2ccccc2)c2ccccc12)CC(C)C | 3.54%
47 | Cc1ccc(-n2nc3c(=O)n(CCCC(=O)NCC4CCCO4)nc(C)c3c2C)cc1 (stereo not drawn) | -1.57%
48 | CSCCC(C(=O)Nc1ccc(C)cc1C)N1C(=O)c2ccccc2C1=O (stereo not drawn) | -0.0947%

Source: paper PMC6919601, “Identification of Plasmodium dipeptidyl aminopeptidase allosteric inhibitors by high throughput screening” (PLoS ONE, 2019)
